# According to PubChem BioAssay AID2060344 (Molecular Pharmacology Branch, DTP, NCI, 2025):
# Not every entry of the source has a single result; some have several. The other results are left out here. The source may hold further records. The records of an entry are repeated measurements across runs, samples, wells, individuals or studies. Marks such as [2022-09] give the month of the run. Marks such as (2×) give the number of equal values in this list.
# Tested on: SK-MEL-2 multi-cell spheroids, viability
# Assay: Anticancer human tumor SK-MEL-2 cell line growth inhibition [TAK];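 also: spheroids exposed to drugs for seven days before readout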;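 as to viability, T/C: percent of DMSO vehicle control luminescence so 100% = untreated viability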
# Details: for viability, T/C: stronger effect = lower value
# Text: Combinatorial screen of targeted agents with TAK-243 and ipatasertib in multi-cell type tumor spheroids
# A high-throughput screen of multi-cell type tumor spheroids was designed to identify active combinations of targeted small molecules and TAK-243 or ipatasertib. Complex spheroids include a stromal component modeled by human endothelial cells (HUVEC) and fibroblasts modeled by human mesenchymal stem cells (MSCs). The concentration ranges selected for each drug and investigational agent were based upon clinically achievable concentrations if the clinical Cmax of the agent was known.
# Compounds. The drugs and investigational agents: TAK-243 (785004), ipatasertib (767898), everolimus (733504), selumetinib (741078), bortezomib (756655), trametinib (758246), ixazomib (758254), vemurafenib (761431), dabrafenib (764134), sapanisertib (764658), alpelisib (765974), and copanlisib (816437), were obtained from the National Cancer Institute (NCI) Developmental Therapeutics Program Chemical Repository. The FDA-approved anticancer drug set is available from the NCI Developmental Therapeutics Program. […] The stock solutions were prepared in dimethyl sulfoxide (DMSO, Sigma-Aldrich, St. Louis, MO, cat. D2650) at 800-fold the tested concentration and stored at -70 degrees C prior to their use. All drugs and investigational agents were tested over a range starting from a high concentration at or near the clinical Cmax and decreasing in half-log increments. If the clinical Cmax for an agent had not been determined, the highest concentration tested was 10 microM.
# NCI60 Cell Culture. NCI60 cell lines were obtained from the NCI Developmental Therapeutics Program Tumor Repository. For each lot of cells, the Repository performed Applied Biosystems AmpFLSTR Identifiler testing with PCR amplification to confirm consistency with the published Identifier STR profile for each cell line. Cells were kept in continuous culture for no more than 20 passages. The optimal seeding densities for each of the cell lines at each time point assessed were determined prior to performing the concentration response studies. Briefly, the NCI60 human tumor lines were grown as monolayers in RPMI 1640 medium supplemented with 10% FBS and 2 mmol/L L-glutamine.
# An additional 2 lines were from the NCI60 cell line panel including melanomas, MALME-3M and SK-MEL-2. Pooled donor human umbilical vein endothelial cells (HUVEC, Lonza, cat. CC-2519) and human mesenchymal stem cells (hMSC, Lonza, cat. PT-2501) were purchased from Lonza (Walkersville, MD).
# PDMR cell lines were grown in complete medium (DC medium): Dulbecco's modified Eagle's medium (DMEM)/F12 supplemented with 5% fetal bovine serum (FBS), 2 mM L-glutamine, 100 U/mL penicillin and 100 µg/ml streptomycin, 0.4 µg/ml hydrocortisone, 10 ng/ml epidermal growth factor (EGF) recombinant human protein, 24 µg/mL adenine, and 0.1 mg/mL primocin. During culture from frozen stock vials, PDMR cells were cultured in the same medium containing 10 µM Y-27632 (see Table 3). The PDCs were cultured in complete DMEM/F12 media without 10 microM Y-27632 dihydrochloride for at least two passages prior to the screen. The pooled donor HUVEC and hMSC were cultured in endothelial cell growth medium 2 (PromoCell, Heidelberg, Germany, cat. C-22011) and mesenchymal stem cell growth medium 2 (PromoCell, cat. C-28009), respectively. For all experiments, HUVEC and hMSC were used at passages </=5.
# For the pre-screen, cell seeding densities were determined from a titration spanning the range from 5,000 to 313 cells per well. The mct-spheroids including 60% malignant cells, 25% HUVEC and 15% MSC dispensed as a mixture into U-bottom Ultra-Low Attachment 384-well plates (Corning, NY)
# High-throughput Drug Combination Screening.
# Prior to their inoculation into 384-well plates, malignant cells, HUVEC, and hMSC were removed from T flasks using TrypLE express (Thermo Fisher Scientific, cat. 12605036) and harvested by centrifugation for 5 min at 233 x g. […]
smiles,measurement,setting,value
CC(C)NCC(C(=O)N1CCN(c2ncnc3c2C(C)CC3O)CC1)c1ccc(Cl)cc1 (stereo unspecified),"viability, T/C",compound alone 0.3 µM,"118%, 112% [2020-02] and 97.3, 95.1, 99.3, 90.3, 98.2, 96.5, 99.9, 96.2% [2020-03]"
same,"viability, T/C",compound alone 0.949 µM,"113%, 118% [2020-02] and 84.7, 78.9, 82.8, 86.5, 81.8 (2×), 81.6, 85% [2020-03]"
same,"viability, T/C",compound alone 3 µM,"113%, 109% [2020-02] and 59.2, 58.5, 65.8, 60.1, 65.2, 66.2, 68.5, 69.3% [2020-03]"
same,"viability, T/C",compound alone 9.49 µM,"108%, 112% [2020-02] and 49.9, 53.7, 57, 53.4, 55.1, 58.4, 52.9, 56.2% [2020-03]"
same,"viability, T/C",compound alone 30 µM,"117%, 114% [2020-02] and 47.3, 46.3, 45.5, 45.3, 46.5, 50.3, 48.4, 49.6% [2020-03]"
same,IC50,"drug combinations, compound alone, run of 03/19/2020","8.79 µM, 13.5 µM, 18.8 µM, 9.09 µM, 18.6 µM, > 30 µM, 20.4 µM, 27.7 µM"
